# Article PMC4336329 (PLoS ONE, 2015)
# The whole screen tested about 310,000 compounds, of which about 14,000 (4.5%) showed an effect of 50% or more. The effect is printed as a negative number. The list shows a part of the results.
# Target: human ether-à-go-go-related gene (hERG) potassium channel (human, UniProt Q12809)
# Test: primary screen, population patch clamp on CHO cells stably expressing hERG
# 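Also: peak tail current of the secondary pulse compared with the same well before compound.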
# human ether-à-go-go-related gene (hERG) potassium channel, sequence (Q12809 whole entry, looked up): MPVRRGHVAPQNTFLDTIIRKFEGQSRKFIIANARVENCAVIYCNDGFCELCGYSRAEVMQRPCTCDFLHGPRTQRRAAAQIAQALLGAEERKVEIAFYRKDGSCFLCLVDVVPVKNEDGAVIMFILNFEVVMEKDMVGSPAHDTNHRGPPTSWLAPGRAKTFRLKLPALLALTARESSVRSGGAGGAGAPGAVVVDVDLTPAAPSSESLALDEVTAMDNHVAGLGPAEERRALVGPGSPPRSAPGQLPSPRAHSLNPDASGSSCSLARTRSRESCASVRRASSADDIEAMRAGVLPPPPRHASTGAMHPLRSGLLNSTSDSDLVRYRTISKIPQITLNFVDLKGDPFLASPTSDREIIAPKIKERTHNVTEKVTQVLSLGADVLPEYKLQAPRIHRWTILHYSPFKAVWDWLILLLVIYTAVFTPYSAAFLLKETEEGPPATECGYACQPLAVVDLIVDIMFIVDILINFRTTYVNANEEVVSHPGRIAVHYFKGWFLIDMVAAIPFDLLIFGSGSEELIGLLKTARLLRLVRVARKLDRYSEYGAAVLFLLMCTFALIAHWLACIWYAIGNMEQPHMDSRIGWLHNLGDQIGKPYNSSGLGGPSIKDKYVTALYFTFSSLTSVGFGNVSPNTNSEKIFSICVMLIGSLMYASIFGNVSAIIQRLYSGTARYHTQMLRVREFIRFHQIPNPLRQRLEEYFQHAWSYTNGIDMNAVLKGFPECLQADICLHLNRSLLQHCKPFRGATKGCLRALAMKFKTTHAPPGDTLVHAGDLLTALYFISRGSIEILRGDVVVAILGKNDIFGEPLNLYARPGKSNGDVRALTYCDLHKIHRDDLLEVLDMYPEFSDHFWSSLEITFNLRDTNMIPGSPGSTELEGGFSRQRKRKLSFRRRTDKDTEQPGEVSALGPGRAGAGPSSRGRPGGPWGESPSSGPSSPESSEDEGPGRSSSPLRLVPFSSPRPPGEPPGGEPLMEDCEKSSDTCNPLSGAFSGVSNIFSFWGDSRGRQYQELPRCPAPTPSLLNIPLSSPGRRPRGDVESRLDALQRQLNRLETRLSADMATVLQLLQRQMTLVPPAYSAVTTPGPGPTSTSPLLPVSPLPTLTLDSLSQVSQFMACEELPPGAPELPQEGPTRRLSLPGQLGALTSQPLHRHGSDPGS
row,SMILES,"hERG current change (%, negative = inhibition) at 10uM [%]"
1,COc1ccccc1C(=O)N1CCN(c2nc3cc(C)c(C)cc3cc2C#N)CC1,-2.28
2,O=C(CSc1cccc[n+]1[O-])NCC1CCCCC1,62
3,Cc1cccc(Nc2ncc3c(n2)CC(C)CC3=O)c1 (stereo not shown),2.03
4,CN(C)Cc1c(O)ccc2c(=O)c(-c3ccc(Cl)cc3)coc12,-9.92
5,CCC(=O)N1CCN(c2cc(NCC3CCCO3)c(F)cc2[N+](=O)[O-])CC1 (stereo not shown),-6.4
6,O=c1ccc(-c2ccc(S(=O)(=O)Nc3cccc(Br)c3)o2)n[nH]1,14.8
7,CCOC(=O)C1CCN(C(=O)CN2C(=O)CSc3ccc(S(=O)(=O)N4CCOCC4)cc32)CC1,-22.6
8,Cc1ccc(CNc2nc3ccccc3n2C)o1,-12.4
9,CCCCCCn1c(CN2CCN(C)CC2)nc2c1c(=O)n(C)c(=O)n2C,-80.9
10,O=C(COc1ccc(/C=N/NS(=O)(=O)c2ccccc2)cc1)N1CCOCC1,7.05
11,COC(=O)C[n+]1cccc2ccccc21.[Cl-],32.5
12,CC1CCc2c(sc(NS(=O)(=O)c3ccccc3)c2C(=O)OC(C)C)C1 (stereo not shown),8.18
13,CN(C)c1ccc(NC(=O)c2cccc([N+](=O)[O-])c2)c2ccccc12,-4.86
14,Cc1ccc(C2(c3noc(CN4CCC(C(=O)N5CCOCC5)CC4)n3)CCCC2)cc1,-4.64
15,O=C(CSc1ccc(-c2ccco2)nn1)N1CCCCCC1,4.12
16,COc1ccc(NC(=O)Cn2cnc3c(cnn3-c3ccc(C)c(C)c3)c2=O)c(OC)c1,-6.81
17,NC(=O)C(=O)NN=C1CCC(c2ccccc2)CC1 (stereo not shown),20.3
18,CCC(=O)N1CCc2cc(S(=O)(=O)CCC(=O)N3CCN(c4ccc(F)cc4)CC3)ccc21,-2.82
19,COC(=O)CCC(=O)NC1CC(C)(C)Cc2c1cnn2-c1ccc(F)cc1 (stereo not shown),4.42
20,CC1CCCC(C)N1CCNC(=O)CCc1nnc2n(Cc3ccccc3)c(=O)c3ccccc3n12 (stereo not shown),-42.6
21,CCc1nc2ccc(C(=O)NCCc3ccco3)cc2nc1CC,-2.52
22,Cc1ccc(P(=O)(CC(=O)O)c2ccc(C)cc2)cc1,-8.65
23,COc1ccc(-c2ccc(SCC(=O)NCC3CCCO3)nn2)cc1OC (stereo not shown),22.2
24,C/C(=N\NC(=O)C(C)Oc1ccc([N+](=O)[O-])cc1)c1ccccn1 (stereo not shown),-29.4
25,Cc1ccc(C)c(OCc2cc(C(=O)N3CC[C@H](O)C3)no2)c1,19.8
26,COc1ccc(NC(=O)[C@@H]2CCCN2C(=O)[C@@H]2Cc3ccccc3CN2C(=O)OC(C)(C)C)cc1,14.8
27,NC(=O)c1cccnc1,18.8
28,COc1ccc(Cl)cc1N(C(C)C(=O)O)S(C)(=O)=O (stereo not shown),8.27

row,SMILES,"hERG current change (%, negative = inhibition) at 10uM [%]"
1,COc1cc(F)cc(C2=CC(=O)C[C@H](c3ccc(F)cc3)C2)c1,2.82
2,COc1ccc(NC(=O)CN2CCC(C(=O)c3ccc(C)cc3)CC2)c(OC)c1,-29.8
3,CN(C)CCCNC(=O)/C=C/c1ccc(OCc2c(F)cccc2Cl)cc1,-67
4,COc1ccc(S(=O)(=O)N(Cc2ccccc2)Cc2nc(-c3ccccc3)no2)cc1,-16.9
5,CCc1noc(C)c1C(=O)N1CCCC(C(=O)c2ccc(OC)c(F)c2)C1 (stereo not shown),-24.9
6,O=C(Nc1nccs1)c1ccc(S(=O)(=O)NCc2cccs2)cc1,-6.5
7,O=C(CNC(=O)c1cccc(Cl)c1)N/N=C/c1cccnc1,14.9
8,CCC(C)(C)NC(=O)c1ccc2c(c1)N(CC(=O)OC)C(=O)C(C)(C)O2,-1.23
9,Cn1cccc1/C=C1\CCC/C(=C\c2cccn2C)C1=O,-2.96
10,O=C(Nc1ccc(Cl)cc1C(=O)Nc1ccncc1)c1ccco1,-26.1
11,O=C(CCNc1n[nH]c(=O)[nH]c1=O)N/N=C\c1ccc(Br)cc1,-3.55
12,Cc1nc(CN(C)C(=O)CC2C(=O)NCCN2Cc2ccc(F)cc2)cs1 (stereo not shown),13.3
13,CC(C)Cc1nnc(NC(=O)C2CCN(C(=O)c3ccc(F)cc3)CC2)s1,-17.5
14,O=C(C1=C(O)C(=O)N(CCN2CCOCC2)C1c1ccccn1)c1cccs1 (stereo not shown),7.34
15,CC(C)CC(c1nnnn1C(C)C)N1CCN(c2cccc(Cl)c2)CC1 (stereo not shown),0.685
16,CCOC(=O)CC(=O)Nc1ccc(C)cc1,-1.65
17,O=C(Nc1cccc([N+](=O)[O-])c1)c1cc(S(=O)(=O)Nc2ccccn2)ccc1Cl,-15
18,O=C(CN1CCN(c2ccccc2F)CC1)N1N=CCC1c1ccccc1 (stereo not shown),-5.83
19,Cn1c(=O)c2c(nc(NCCNC(=O)c3ccco3)n2Cc2ccccc2)n(C)c1=O,1.73
20,COc1ccc(S(=O)(=O)N2CCOCC2)cc1NC(=O)c1cccs1,-7.06
21,COCCn1c(SC(C(=O)Nc2cc(C)ccc2OC)c2ccccc2)nnc1-c1ccc(Cl)cc1 (stereo not shown),-41.3
22,C#CC[N+]1(CC#Cc2ccccc2)CCOCC1.[I-],3.54
23,CC(C)=NOC(=O)c1ccc(-c2ccccc2)cc1,2.26
24,O=C(NCc1ccccc1)/C(=N\O)c1ccccc1,-7.47
25,Cc1ccc(OCc2cc(C(=O)NC(C)Cc3cccc(C)n3)no2)cn1 (stereo not shown),17.8
26,CCN(CC)S(=O)(=O)c1cc(NC(=O)CSc2nc3c(cc2C#N)C(=O)CC(C)(C)C3)ccc1C,4.51
27,O=C(NCCN1C(=O)S/C(=C\c2ccccc2Cl)C1=O)C1=COCCO1,-5.53
